A word on the Kd: it is the concentration at which binding is half-saturated. The term koff denotes a measure of how fast the partners let go of each other. The term kon denotes a measure of how fast the partners come together.

Consider nine molecules from patent US20250382361A1 (UNIVERSITY OF OREGON, published 2025).

For experiment [1], the target named is T1, Recombinant VEGF165 (vascular endothelial growth factor) (UniProt P15692-4 27-191, biotinylated (bVEGF) in flow cytometry and BLI).
T1 construct: also called VEGF-A (165); bVEGF
T1 sequence (looked up): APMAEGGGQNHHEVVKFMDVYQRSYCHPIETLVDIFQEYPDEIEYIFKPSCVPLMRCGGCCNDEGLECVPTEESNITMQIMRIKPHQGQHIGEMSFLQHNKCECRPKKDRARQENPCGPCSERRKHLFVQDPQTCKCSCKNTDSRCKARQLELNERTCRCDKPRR
The experiment in a line: flow cytometry, yeast-displayed affibody with 1000 nM biotinylated target.

The target in experiment [2] is T2, Granulocyte-macrophage colony-stimulating factor (GM-CSF), biotinylated (UniProt P04141 18-144, biotinylated (bGM-CSF)).
T2 construct: also called bGM-CSF
T2 sequence (P04141 18-144 limits assumed): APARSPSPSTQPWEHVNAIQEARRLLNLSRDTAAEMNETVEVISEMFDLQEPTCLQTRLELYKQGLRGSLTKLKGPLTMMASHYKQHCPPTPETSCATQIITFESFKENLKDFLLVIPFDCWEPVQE
The description is as above.

Experiment [3] concerns the target T3, Recombinant human BMP-2 (bone morphogenetic protein 2) (human, UniProt P12643 283-396, biotinylated with Sulfo-NHS-Biotin (bBMP-2) in flow cytometry and BLI).
T3 construct: Bought protein; also called bBMP-2; bBMP
T3 sequence (looked up): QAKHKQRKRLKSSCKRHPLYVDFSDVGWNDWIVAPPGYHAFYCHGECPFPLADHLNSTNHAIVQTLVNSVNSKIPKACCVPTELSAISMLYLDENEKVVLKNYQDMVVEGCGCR
The experiment in a line: yeast surface display, flow cytometry, bBMP-2 0.5-1000 nM, nonlinear regression.

For experiment [4], the target named is T4, Recombinant human PDGF-BB (platelet-derived growth factor) (human, UniProt P01127 82-190, biotinylated (bPDGF) in flow cytometry and off-target BLI; not biotinylated in the Ni-NTA BLI).
T4 construct: also called rhPDGF-BB; bPDGF
T4 sequence (P01127 82-190): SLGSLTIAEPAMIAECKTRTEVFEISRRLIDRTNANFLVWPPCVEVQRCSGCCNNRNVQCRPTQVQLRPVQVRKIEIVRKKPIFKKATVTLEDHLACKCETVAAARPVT
The experiment in a line: BLI, affibody on Ni-NTA probes, soluble PDGF (method not stated in Table 1). In general terms: In BLI a coated tip is dipped into the sample, and binding shifts an interference pattern.

Experiment [5] addresses T1, Recombinant VEGF165 (vascular …). The experiment in a line: biolayer interferometry, 25 nM bVEGF on streptavidin probes, 1000 nM soluble affibody.
In experiment [6] the target is T4, Recombinant human PDGF-BB …. The experiment in a line: BLI.
Experiment [7] has the same target. The experiment in a line: BLI, 200 nM His-tagged affibody on Ni-NTA probes, PDGF 1.563-50 nM, global fit.
Experiment [8] has as its target T1, Recombinant VEGF165 (vascular …). The experiment in a line: ratio of KD values; method not given.
Experiment [9] has the same target. The experiment in a line: yeast surface display, flow cytometry with bVEGF. On the technique in general: Flow cytometry measures light scatter and fluorescence of single cells or particles in a stream.
In experiment [10] the target is T5, Recombinant FGF-2 (fibroblast growth factor 2) (UniProt P09038 143-288, limits assumed, biotinylated (bFGF-2) in flow cytometry and BLI).
T5 construct: also called bFGF-2; biotinylated FGF-2
T5 sequence (P09038 143-288 limits assumed): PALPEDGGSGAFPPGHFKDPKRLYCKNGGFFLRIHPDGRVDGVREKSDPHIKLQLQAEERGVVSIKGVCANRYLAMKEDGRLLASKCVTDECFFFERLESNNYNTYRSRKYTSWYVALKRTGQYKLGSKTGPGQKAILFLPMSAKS
As to the kind of experiment: flow cytometry, yeast-displayed affibody with biotinylated target.

The target of experiment [11] is T4, Recombinant human PDGF-BB …. Described as above.
Experiment [12] deals with T1, Recombinant VEGF165 (vascular …). The experiment in a line: flow cytometry, yeast-displayed affibody with 1000 nM biotinylated target. The source holds these as a separate data set.
Experiment [13] concerns the target T2, Granulocyte-macrophage …. The description is as above. The source holds these as a separate data set.
Experiment [14] addresses T4, Recombinant human PDGF-BB …. As to the kind of experiment: yeast surface display, flow cytometry, bPDGF-BB 0.016-8.4 µM.
Experiment [15] shares this target. The experiment in a line: biolayer interferometry; 25 nM bPDGF on streptavidin probes, 1000 nM soluble affibody as analyte.
The target in experiment [16] is T1, Recombinant VEGF165 (vascular …). As to the kind of experiment: BLI, 25 nM bVEGF on streptavidin probes, soluble affibody 31.25-1000 nM, global fit.
Experiment [17] has the same target. The experiment in a line: method not stated in Table 1 (yeast surface display or BLI per paragraph 316); Table 1 value; method not stated (yeast surface display or BLI).
For experiment [18] the target is unchanged. The experiment in a line: biolayer interferometry, 25 nM bVEGF on streptavidin probes, soluble affibody 15.625-125 nM.
Experiment [19] has as its target T2, Granulocyte-macrophage …. As to the kind of experiment: biolayer interferometry, 25 nM bGM-CSF on streptavidin probes, soluble affibody 15.625-125 nM.
The target in experiment [20] is T2, Granulocyte-macrophage …. Described as above. The source holds these as a separate data set.
The target in experiment [21] is T1, Recombinant VEGF165 (vascular …). The experiment in a line: biolayer interferometry, 25 nM bVEGF on streptavidin probes, soluble affibody 15.625-125 nM. The source holds these as a separate data set.
Experiment [22] shares this target. As to the kind of experiment: method not stated (yeast surface display or BLI per paragraph 316); method not stated (yeast display or BLI per paragraph 316); yeast display with bVEGF165 in paragraph 322 gives 861±255 nM.
Experiment [23] has the same target. The experiment in a line: yeast surface display, flow cytometry, bVEGF165 0.02-10 µM.

B1: High Affinity BMP-2 affibody A1-2 (SEQ ID NO: 1), yeast-displayed (designed binder)
chain: AEAKYYKEVSSAATQIRYLPNLTAFQKAAFYAALLDDPSQSSELLSEAKKLNDSQAPK
Take B1: the binding result in [1] and in [2] was “no binding (tested: 1000 nM)” each time. Besides, in [3], the Kd worked out at 1.95 nM.

B2: PDGF Affibody-13 (SEQ ID NO: 59), soluble with hexahistidine tag and C-terminal cysteine (designed binder)
chain: AEAKYAFELWEAQHEIQQLPNLRPDQIAAFAMALYDDPSQSSELLSEAKKLNDSQAPKHHHHHHC
notes: soluble, expressed in E. coli; also called 0057; 0057/Affibody-13
On to B2, for which the Kd in experiment [4] turned out to be 77.3 nM. Moreover, the binding result in experiment [5] is recorded as “no binding (tested: 1000 nM)”. Further, in experiment [6], the “fold higher equilibrium dissociation constant than PDGF Affibody-16” value was 10 fold. In addition, in experiment [7], the equilibrium dissociation constant (Kd) turned out to be 77.4 nM, the koff came to 0.0182 s⁻¹ and the kon was determined as 237000 M⁻¹ s⁻¹.

B3: VEGF affibody TM2 (High Affinity) (SEQ ID NO: 20), yeast-displayed (designed binder)
chain: AEAKYYKEGATAYRVIEYLPNLTGAQKAAFIDALYNDPSQSSELLSEAKKLNDSQAPK
notes: also called VEGF High Affibody
With B3, in experiment [8], the “fold greater affinity than the low-affinity VEGF affibody (SEQ ID NO: 78)” value is around 100 fold and the “fold greater affinity than the medium-affinity VEGF affibody (SEQ ID NO: 21)” value was around 5 fold. In addition, the equilibrium dissociation constant (Kd) in experiment [9] was determined as 58.3 nM. In addition, the binding result in [10] is recorded as “no binding”. The binding result in [11] was “no binding”.

B4: Low Affinity BMP-2 affibody B4-1 (SEQ ID NO: 3), yeast-displayed (designed binder)
chain: AEAKYYKEGDNAYNVIYGLPNLTRPQRLAFIVALFNDPSQSSELLSEAKKLNDSQAPK
Consider B4, for which the binding result in experiment [12] and in experiment [13] was “no binding (tested: 1000 nM)” in each case.

B5: PDGF affibody BM_6 (Medium) (SEQ ID NO: 60), yeast-displayed (designed binder)
chain: AEAKYAKELDDASVEIWDLPNLTPCQKVAFFVALYDDPSQSSELLSEAKKLNDSQAPK
notes: also called original PDGF affibody; PDGF-specific affibody
Consider B5, for which the dissociation constant (Kd) in experiment [14] is 855 nM.

B6: VEGF Affibody-D28A (SEQ ID NO: 77), soluble with hexahistidine tag and C-terminal cysteine (designed binder)
chain: AEAKYNKEWYDAVFVIGSLPNLTEDQKAAFSDALVDDPSQSSELLSEAKKLNDSQAPKHHHHHHC
notes: soluble, expressed in E. coli
On to B6, for which the binding result in experiment [15] is given as “no binding (tested: 1000 nM)”. In [16], the Kd came out at 455 nM, the koff is 0.00418 s⁻¹ and the kon came out at 9190 M⁻¹ s⁻¹. Also, in experiment [17], the dissociation constant (Kd) was determined as 1840 nM.

B7: Low Affinity BMP-2 Affibody, soluble, with hexahistidine tag and C-terminal cysteine (SEQ ID NO: 73) (designed binder)
chain: AEAKYYKEGDNAYNVIYGLPNLTRPQRLAFIVALFNDPSQSSELLSEAKKLNDSQAPKHHHHHHC
notes: E. coli-expressed; also called B4-1
In the case of B7, the binding result in [18] and in [19] was “no binding (tested: 125 nM)” throughout.

B8: High Affinity BMP-2 Affibody, soluble, with hexahistidine tag and C-terminal cysteine (SEQ ID NO: 71) (designed binder)
chain: AEAKYYKEVSSAATQIRYLPNLTAFQKAAFYAALLDDPSQSSELLSEAKKLNDSQAPKHHHHHHC
notes: E. coli-expressed; also called A1-2
In the case of B8, the binding result in experiment [20] and in [21] was “no binding (tested: 125 nM)” each time.

B9: VEGF affibody BR2 (Low Affinity) (SEQ ID NO: 22), yeast-displayed (designed binder)
chain: AEAKYNKEWYDAVFVIGSLPNLTEDQKDAFSDALVDDPSQSSELLSEAKKLNDSQAPK
notes: also called original VEGF affibody; VEGF-specific affibody
Regarding B9, the figures for the Kd in experiment [22] and in [23] were 6470 nM and 861 nM, respectively. Further, the binding result in experiment [10] and in experiment [11] was “no binding” each time.
